Measurements reported in the supplement of paper PMC4723716.
± gives the uncertainty stated by the source. Whole data set: some 9,900 compounds, median “viability index relative to DMSO control” near 1, cut for the lowest 2% near 0.85. The list shows a part of the results.

test system: Plasmodium falciparum NF54 stage V gametocytes; assay: viability index relative to DMSO control (fraction); higher = less gametocyte killing; settings: 2.5 µM, library set: Broad Institute DOS, incubation time: 72 h
How it was run: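 P. falciparum NF54 stage V gametocytes in serum-free screening medium (0.75% gametocytemia, 1.25% hematocrit, 10 µl) were incubated with compound at 2.5 µM in 1,536-well plates for 72 hr at 37°C under low oxygen. Then 3 µl of 2.5 µM MitoTracker Red CMXRos plus 0.13% saponin was added for one to two hours. One field per well was imaged, 20–70 µm2 red particles were counted, and the viability index was the count divided by the plate mean of DMSO wells.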

SMILES	viability index
Cc1ccc(-c2ccccc2[C@H]2[C@@H](C#N)N(c3ncc(-c4ccccc4)s3)[C@H]2CO)cc1	0.985 ± 0.14
CO[C@H]1CN(C)C(=O)c2ccc(NC(=O)c3ccno3)cc2OC[C@@H](C)N(S(C)(=O)=O)C[C@H]1C	1.12 ± 0.052
COCC(=O)N1[C@H](CO)[C@@H](c2ccc(C#Cc3ccccc3F)cc2)[C@@H]1C#N	1.11 ± 0.068
COc1ccccc1NC(=O)N[C@@H]1CC[C@@H](CCNS(=O)(=O)c2ccc(Cl)cc2)O[C@@H]1CO	0.913 ± 0.093
C[C@@H]1CN([C@H](C)CO)C(=O)c2cc(NC(=O)NC3CCCCC3)ccc2O[C@@H](C)CCCCO[C@H]1CN(C)S(C)(=O)=O	1.123 ± 0.01
C[C@H]1CN([C@@H](C)CO)S(=O)(=O)c2ccc(C#Cc3ccccc3F)cc2O[C@@H]1CN(C)C(=O)Cc1cccnc1	0.94 ± 0.15
COc1ccc2c3c([C@H](CO)N(Cc4ccccc4OC)C[C@]33CN(C)C3)n(C)c2c1	0.978 ± 0.012
O=C(C[C@@H]1C[C@@H]2c3cc(NC(=O)C4CCOCC4)ccc3O[C@@H]2[C@@H](CO)O1)NCc1cccnc1	0.983 ± 0.039
CNC(=O)C[C@H]1CC[C@@H]2[C@H](COc3ccc(NC(=O)c4ccccc4F)cc3C(=O)N2C)O1	1.08 ± 0.12
COc1ccc(NC(=O)N(C)C[C@H]2Oc3ccc(NC(=O)Nc4cccc5ccccc45)cc3CC(=O)N([C@H](C)CO)C[C@H]2C)cc1	0.98 ± 0.014
O=C(C[C@H]1CC[C@@H](NS(=O)(=O)c2ccccc2F)[C@@H](CO)O1)NCCCN1CCOCC1	0.984 ± 0.15
C[C@H]1CC(=O)NCC/C=C\C[C@@H](c2cccc(Cl)c2)NC1=O	0.934 ± 0.1
CC(C)(O)C#Cc1ccc([C@@H]2[C@@H](CO)N3CCCCN(S(C)(=O)=O)C[C@@H]23)cc1	1.09 ± 0.017
N#C[C@H]1N[C@@H](CO)[C@@H]1c1ccc(C#CC2CCCCC2)cc1	1.068 ± 0.0084
C[C@@H]1CN([C@@H](C)CO)C(=O)CCCn2nncc2CO[C@H]1CN(C)C(=O)Nc1ccc2c(c1)OCCO2	1.04 ± 0.062
OC[C@@H]1[C@H](c2ccc(C#CC3(O)CCCC3)cc2)[C@H]2CN(Cc3cncnc3)CCCCN12	1.07 ± 0.044
Cc1noc(C)c1NC(=O)Nc1ccc2c(c1)CC(=O)N([C@@H](C)CO)C[C@@H](C)[C@H](CN(C)Cc1ccc(C(F)(F)F)cc1)O2	1.06 ± 0.039
COc1ccccc1NC(=O)N1CCCCN2[C@@H](CO)[C@@H](c3ccc(-c4cccc(C#N)c4)cc3)[C@@H]2C1	0.93 ± 0.028
COc1ccccc1CNC(=O)C[C@@H]1CC[C@@H]2[C@H](COC[C@H](O)CN2Cc2ccc3c(c2)OCO3)O1	1.08 ± 0.045
O=C(N[C@@H]1C=C[C@H](CC(=O)N2CCN(c3ccccc3)CC2)O[C@H]1CO)c1ccccc1	1.12 ± 0.051
CCCC(=O)Nc1ccc2c(c1)C(=O)N(C)[C@H]1CC[C@H](CC(=O)N3CCCCC3)O[C@H]1CO2	1.14 ± 0.078
O=C(C[C@H]1C[C@@H]2c3cc(NC(=O)CC4CC4)ccc3O[C@@H]2[C@H](CO)O1)NCC1CC1	1.12 ± 0.018
O=C(Nc1ccc(F)cc1)N1CC(=O)N2[C@H](CO)[C@H](c3ccc(C4=CCCC4)cc3)[C@@H]2C1	0.994 ± 0.029

SMILES	viability index
CS(=O)(=O)N1CC(=O)N2[C@H](CO)[C@H](c3ccc(Br)cc3)[C@@H]2C1	1.016 ± 0.0034
C[C@H]1CCCCO[C@H](CN(C)S(=O)(=O)c2cn(C)cn2)[C@@H](C)CN([C@@H](C)CO)C(=O)c2cc(N(C)C)ccc2O1	1.03 ± 0.062
COc1ccccc1S(=O)(=O)N(C)C[C@H]1OCc2cn(nn2)CCCC(=O)N([C@H](C)CO)C[C@@H]1C	1.07 ± 0.035
CN1CCN(C(=O)C[C@@H]2CC[C@@H]3[C@H](COc4ccc(NC(=O)c5cccs5)cc4C(=O)N3C)O2)CC1	0.944 ± 0.073
COc1ccc2c3c([C@@H](CO)N(C[C@]33CCN(CC3)C(=O)c3cnccn3)C(C)=O)n(C)c2c1	0.958 ± 0.058
COc1ccc2c3c([C@@H](CO)N(C[C@]33CCN(CC3)S(C)(=O)=O)C(=O)CN(C)C)n(C)c2c1	0.956 ± 0.029
C[C@@H]1CCCCO[C@H](CN(C)C(=O)C2CCCCC2)[C@H](C)CN([C@H](C)CO)C(=O)c2cc(NS(=O)(=O)c3ccccc3)ccc2O1	0.904 ± 0.053
CCCNC(=O)C[C@@H]1CC[C@@H]2[C@H](COC[C@H](O)CN2Cc2ccncc2)O1	1.06 ± 0.028
C[C@@H]1CN([C@H](C)CO)C(=O)c2cc(C#CC3(O)CCCC3)cnc2O[C@@H]1CN(C)S(=O)(=O)c1cccc(F)c1	1.04 ± 0.032
CCCNC(=O)C[C@@H]1CC[C@@H]2[C@H](COC[C@@H](O)CN2C(=O)c2ccc(F)cc2)O1	1.02 ± 0.033
O=C(Nc1ccc(F)cc1)N1CC(=O)N2[C@H](C1)[C@@H](c1ccc(-c3cccc(F)c3)cc1)[C@@H]2CO	1.07 ± 0.05
CN1c2ccc(Br)cc2[C@H]2[C@H](CCN2C(=O)C2CCC2)[C@@H]1CO	1.04 ± 0.076
CN1c2ccc(Br)cc2[C@H]2[C@H](CCN2S(=O)(=O)c2ccccc2F)[C@H]1CO	1.08 ± 0.044
CN(C)CC(=O)N1C[C@@H]2N[C@H](C1)[C@@H]2c1ccc(C2=CCCCC2)cc1	0.898 ± 0.013
CN1CCN(C(=O)C[C@@H]2C[C@@H]3c4cc(NS(C)(=O)=O)ccc4O[C@@H]3[C@@H](CO)O2)CC1	0.994 ± 0.013
CCN(C[C@H]1[C@@H](c2ccccc2)[C@H](CO)N1C(=O)COC)S(C)(=O)=O	1.05 ± 0.035
Cc1ccc(OC(=O)N(C)C[C@H]2OCc3ccccc3-c3ccccc3C(=O)N([C@H](C)CO)C[C@H]2C)cc1	0.992 ± 0.024
OC[C@@H]1[C@@H](c2ccccc2)C2(CN(CCC(F)(F)F)C2)N1Cc1nccs1	1.09 ± 0.046
COc1ccccc1-c1ccccc1[C@@H]1[C@@H](CO)N(C(=O)CN(C)C)[C@H]1C#N	1.06 ± 0.021
CCCC(=O)Nc1ccc2c(c1)C(=O)N(C)C[C@@H](OC)[C@H](C)CN(C(=O)c1ccccn1)[C@@H](C)CO2	1.07 ± 0.018
Cc1noc(C)c1NC(=O)Nc1ccc2c(c1)CC(=O)N([C@@H](C)CO)C[C@@H](C)[C@@H](CN(C)Cc1ccc(C(F)(F)F)cc1)O2	1.01 ± 0.09
CC(C)C#Cc1ccc([C@H]2[C@@H](CO)N3C(=O)CN(C(=O)Cc4ccccc4)C[C@@H]23)cc1	1.07 ± 0.021
C=C(C)C[C@H]1CCn2cc(nn2)COCCNC1=O	1.06 ± 0.015
